Experimental data published in the supplement of paper PMC12230231.
± gives the standard deviation of the averaged measurements. Restriction of a single-cycle SIVsab GFP reporter by TRIM5α v1-loop variants in CRFK cells. Human variants: read share among cells still uninfected after two challenges over input, higher = gained restriction. Rhesus variants: share among infected cells over input, higher = lost restriction. Reporter dose not given per row. No active / inactive call per row; the paper calls a change when both replicates lie above its controls (mean + 2 SD of stop or wild-type variants, or the top frameshift score). Residues outside the varied loop are taken from Swiss-Prot. The paper reads the human single-substitution scores as noise; they and the rhesus combinations repeat poorly (rank correlation 0.3 to 0.4), indel scores repeat only for the top variants, rhesus substitutions well (0.9).

These sequences were tested on SIVsab (simian immunodeficiency virus of sabaeus monkeys), single-cycle GFP reporter, in CRFK cells (assay: enrichment among uninfected cells over input (fold); higher = stronger restriction). Settings: library: human / rhesus combinations.
Method: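 Pools of CRFK cells expressing variants of the TRIM5α v1 loop were challenged with the single-cycle reporter, sorted by GFP and sequenced; mean of two replicates.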

Sequence	enrichment
MASGILVNVKEEVTCPICLELLTQPLSLDCGHSFCQACLTANHKKSMLDKGESSCPVCRISYQPENIRPNRHVANIVEKLREVKLSPEGQKVDHCARHGEKLLLFCQEDGKVICWLCERSQEHRGHHTFLTEEVAREYQVKLQAALEMLRQKQQEAEELEADIREEKASWKTQIQYDKTNVLADFEQLRDILDWEESNELQNLEKEEEDILKSLTNSETEMVQQTQSLRELISDLEHRLQGSVMELLQGVDGVIKRTENVTLKKPETFPKNQRRVFRAPDLKGMLEVFRELTDVRRYWVDVTVAPNNISCAVISEDKRQVSSPKPQIIYGARGTRFTFQSLVNFNYCTGILGSQSITSGKHYWEVDVSKKTAWILGVCAGFQPDAMCNIEKNENYQPKYGYWVIGLEEGVKCSAFQDSSFHTPSVPFIVPLSVIICPDRVGVFLDYEACTVSFFNITNHGFLIYKFSHCSFSQPVFPYLNPRKCGVPMTLCSPSS [human TRIM5α, 330-340 = GARGTRFTFQSLV]	0.184 ± 0.049
MASGILVNVKEEVTCPICLELLTQPLSLDCGHSFCQACLTANHKKSMLDKGESSCPVCRISYQPENIRPNRHVANIVEKLREVKLSPEGQKVDHCARHGEKLLLFCQEDGKVICWLCERSQEHRGHHTFLTEEVAREYQVKLQAALEMLRQKQQEAEELEADIREEKASWKTQIQYDKTNVLADFEQLRDILDWEESNELQNLEKEEEDILKSLTNSETEMVQQTQSLRELISDLEHRLQGSVMELLQGVDGVIKRTENVTLKKPETFPKNQRRVFRAPDLKGMLEVFRELTDVRRYWVDVTVAPNNISCAVISEDKRQVSSPKPQIIYGARGTRFTFPTFTNFNYCTGILGSQSITSGKHYWEVDVSKKTAWILGVCAGFQPDAMCNIEKNENYQPKYGYWVIGLEEGVKCSAFQDSSFHTPSVPFIVPLSVIICPDRVGVFLDYEACTVSFFNITNHGFLIYKFSHCSFSQPVFPYLNPRKCGVPMTLCSPSS [human TRIM5α, 330-340 = GARGTRFTFPTFT]	0.0283 ± 0.04
MASGILVNVKEEVTCPICLELLTQPLSLDCGHSFCQACLTANHKKSMLDKGESSCPVCRISYQPENIRPNRHVANIVEKLREVKLSPEGQKVDHCARHGEKLLLFCQEDGKVICWLCERSQEHRGHHTFLTEEVAREYQVKLQAALEMLRQKQQEAEELEADIREEKASWKTQIQYDKTNVLADFEQLRDILDWEESNELQNLEKEEEDILKSLTNSETEMVQQTQSLRELISDLEHRLQGSVMELLQGVDGVIKRTENVTLKKPETFPKNQRRVFRAPDLKGMLEVFRELTDVRRYWVDVTVAPNNISCAVISEDKRQVSSPKPQIIYGAPGTRYPSLVNFNYCTGILGSQSITSGKHYWEVDVSKKTAWILGVCAGFQPDAMCNIEKNENYQPKYGYWVIGLEEGVKCSAFQDSSFHTPSVPFIVPLSVIICPDRVGVFLDYEACTVSFFNITNHGFLIYKFSHCSFSQPVFPYLNPRKCGVPMTLCSPSS [human TRIM5α, 330-340 = GAPGTRYPSLV]	0.254 ± 0.35
MASGILVNVKEEVTCPICLELLTQPLSLDCGHSFCQACLTANHKKSMLDKGESSCPVCRISYQPENIRPNRHVANIVEKLREVKLSPEGQKVDHCARHGEKLLLFCQEDGKVICWLCERSQEHRGHHTFLTEEVAREYQVKLQAALEMLRQKQQEAEELEADIREEKASWKTQIQYDKTNVLADFEQLRDILDWEESNELQNLEKEEEDILKSLTNSETEMVQQTQSLRELISDLEHRLQGSVMELLQGVDGVIKRTENVTLKKPETFPKNQRRVFRAPDLKGMLEVFRELTDVRRYWVDVTVAPNNISCAVISEDKRQVSSPKPQIIYGAPGTLFPTFVNFNYCTGILGSQSITSGKHYWEVDVSKKTAWILGVCAGFQPDAMCNIEKNENYQPKYGYWVIGLEEGVKCSAFQDSSFHTPSVPFIVPLSVIICPDRVGVFLDYEACTVSFFNITNHGFLIYKFSHCSFSQPVFPYLNPRKCGVPMTLCSPSS [human TRIM5α, 330-340 = GAPGTLFPTFV]	0.00245 ± 0.0014
MASGILVNVKEEVTCPICLELLTQPLSLDCGHSFCQACLTANHKKSMLDKGESSCPVCRISYQPENIRPNRHVANIVEKLREVKLSPEGQKVDHCARHGEKLLLFCQEDGKVICWLCERSQEHRGHHTFLTEEVAREYQVKLQAALEMLRQKQQEAEELEADIREEKASWKTQIQYDKTNVLADFEQLRDILDWEESNELQNLEKEEEDILKSLTNSETEMVQQTQSLRELISDLEHRLQGSVMELLQGVDGVIKRTENVTLKKPETFPKNQRRVFRAPDLKGMLEVFRELTDVRRYWVDVTVAPNNISCAVISEDKRQVSSPKPQIIYGARGTRFQSFTNFNYCTGILGSQSITSGKHYWEVDVSKKTAWILGVCAGFQPDAMCNIEKNENYQPKYGYWVIGLEEGVKCSAFQDSSFHTPSVPFIVPLSVIICPDRVGVFLDYEACTVSFFNITNHGFLIYKFSHCSFSQPVFPYLNPRKCGVPMTLCSPSS [human TRIM5α, 330-340 = GARGTRFQSFT]	0.0125 ± 0.014
MASGILVNVKEEVTCPICLELLTQPLSLDCGHSFCQACLTANHKKSMLDKGESSCPVCRISYQPENIRPNRHVANIVEKLREVKLSPEGQKVDHCARHGEKLLLFCQEDGKVICWLCERSQEHRGHHTFLTEEVAREYQVKLQAALEMLRQKQQEAEELEADIREEKASWKTQIQYDKTNVLADFEQLRDILDWEESNELQNLEKEEEDILKSLTNSETEMVQQTQSLRELISDLEHRLQGSVMELLQGVDGVIKRTENVTLKKPETFPKNQRRVFRAPDLKGMLEVFRELTDVRRYWVDVTVAPNNISCAVISEDKRQVSSPKPQIIYGARGTLYTFPSLTNFNYCTGILGSQSITSGKHYWEVDVSKKTAWILGVCAGFQPDAMCNIEKNENYQPKYGYWVIGLEEGVKCSAFQDSSFHTPSVPFIVPLSVIICPDRVGVFLDYEACTVSFFNITNHGFLIYKFSHCSFSQPVFPYLNPRKCGVPMTLCSPSS [human TRIM5α, 330-340 = GARGTLYTFPSLT]	0.0745 ± 0.027
MASGILVNVKEEVTCPICLELLTQPLSLDCGHSFCQACLTANHKKSMLDKGESSCPVCRISYQPENIRPNRHVANIVEKLREVKLSPEGQKVDHCARHGEKLLLFCQEDGKVICWLCERSQEHRGHHTFLTEEVAREYQVKLQAALEMLRQKQQEAEELEADIREEKASWKTQIQYDKTNVLADFEQLRDILDWEESNELQNLEKEEEDILKSLTNSETEMVQQTQSLRELISDLEHRLQGSVMELLQGVDGVIKRTENVTLKKPETFPKNQRRVFRAPDLKGMLEVFRELTDVRRYWVDVTVAPNNISCAVISEDKRQVSSPKPQIIYQARGTRFTFPSFVNFNYCTGILGSQSITSGKHYWEVDVSKKTAWILGVCAGFQPDAMCNIEKNENYQPKYGYWVIGLEEGVKCSAFQDSSFHTPSVPFIVPLSVIICPDRVGVFLDYEACTVSFFNITNHGFLIYKFSHCSFSQPVFPYLNPRKCGVPMTLCSPSS [human TRIM5α, 330-340 = QARGTRFTFPSFV]	0.0841 ± 0.013

Same assay, conditions: library: insertions and deletions

Sequence	enrichment
MASGILVNVKEEVTCPICLELLTQPLSLDCGHSFCQACLTANHKKSMLDKGESSCPVCRISYQPENIRPNRHVANIVEKLREVKLSPEGQKVDHCARHGEKLLLFCQEDGKVICWLCERSQEHRGHHTFLTEEVAREYQVKLQAALEMLRQKQQEAEELEADIREEKASWKTQIQYDKTNVLADFEQLRDILDWEESNELQNLEKEEEDILKSLTNSETEMVQQTQSLRELISDLEHRLQGSVMELLQGVDGVIKRTENVTLKKPETFPKNQRRVFRAPDLKGMLEVFRELTDVRRYWVDVTVAPNNISCAVISEDKRQVSSPKPQIIYGIIYGARGTRYQTFVNFNYCTGILGSQSITSGKHYWEVDVSKKTAWILGVCAGFQPDAMCNIEKNENYQPKYGYWVIGLEEGVKCSAFQDSSFHTPSVPFIVPLSVIICPDRVGVFLDYEACTVSFFNITNHGFLIYKFSHCSFSQPVFPYLNPRKCGVPMTLCSPSS [human TRIM5α, 4-codon duplication at 327]	0.671 ± 0.69
MASGILVNVKEEVTCPICLELLTQPLSLDCGHSFCQACLTANHKKSMLDKGESSCPVCRISYQPENIRPNRHVANIVEKLREVKLSPEGQKVDHCARHGEKLLLFCQEDGKVICWLCERSQEHRGHHTFLTEEVAREYQVKLQAALEMLRQKQQEAEELEADIREEKASWKTQIQYDKTNVLADFEQLRDILDWEESNELQNLEKEEEDILKSLTNSETEMVQQTQSLRELISDLEHRLQGSVMELLQGVDGVIKRTENVTLKKPETFPKNQRRVFRAPDLKGMLEVFRELTDVRRYWVDVTVAPNNISCAVISEDKRQVSSPKPQIIYGARGTRYQTFVNGTRYQTFVNFNYCTGILGSQSITSGKHYWEVDVSKKTAWILGVCAGFQPDAMCNIEKNENYQPKYGYWVIGLEEGVKCSAFQDSSFHTPSVPFIVPLSVIICPDRVGVFLDYEACTVSFFNITNHGFLIYKFSHCSFSQPVFPYLNPRKCGVPMTLCSPSS [human TRIM5α, 9-codon duplication at 333]	0.233 ± 0.063
MASGILVNVKEEVTCPICLELLTQPLSLDCGHSFCQACLTANHKKSMLDKGESSCPVCRISYQPENIRPNRHVANIVEKLREVKLSPEGQKVDHCARHGEKLLLFCQEDGKVICWLCERSQEHRGHHTFLTEEVAREYQVKLQAALEMLRQKQQEAEELEADIREEKASWKTQIQYDKTNVLADFEQLRDILDWEESNELQNLEKEEEDILKSLTNSETEMVQQTQSLRELISDLEHRLQGSVMELLQGVDGVIKRTENVTLKKPETFPKNQRRVFRAPDLKGMLEVFRELTDVRRYWVDVTVAPNNISCAVISEDKRQVSSPKPQIIYGGTRYQTFVNFNYCTGILGSQSITSGKHYWEVDVSKKTAWILGVCAGFQPDAMCNIEKNENYQPKYGYWVIGLEEGVKCSAFQDSSFHTPSVPFIVPLSVIICPDRVGVFLDYEACTVSFFNITNHGFLIYKFSHCSFSQPVFPYLNPRKCGVPMTLCSPSS [human TRIM5α, 2-codon deletion at 331]	0.175 ± 0.17
MASGILVNVKEEVTCPICLELLTQPLSLDCGHSFCQACLTANHKKSMLDKGESSCPVCRISYQPENIRPNRHVANIVEKLREVKLSPEGQKVDHCARHGEKLLLFCQEDGKVICWLCERSQEHRGHHTFLTEEVAREYQVKLQAALEMLRQKQQEAEELEADIREEKASWKTQIQYDKTNVLADFEQLRDILDWEESNELQNLEKEEEDILKSLTNSETEMVQQTQSLRELISDLEHRLQGSVMELLQGVDGVIKRTENVTLKKPETFPKNQRRVFRAPDLKGMLEVFRELTDVRRYWVDVTVAPNNISCAVISEDKRQVSSPKPQIIYGARYGARGTRYQTFVNFNYCTGILGSQSITSGKHYWEVDVSKKTAWILGVCAGFQPDAMCNIEKNENYQPKYGYWVIGLEEGVKCSAFQDSSFHTPSVPFIVPLSVIICPDRVGVFLDYEACTVSFFNITNHGFLIYKFSHCSFSQPVFPYLNPRKCGVPMTLCSPSS [human TRIM5α, 4-codon duplication at 329]	0.606 ± 0.39
MASGILVNVKEEVTCPICLELLTQPLSLDCGHSFCQACLTANHKKSMLDKGESSCPVCRISYQPENIRPNRHVANIVEKLREVKLSPEGQKVDHCARHGEKLLLFCQEDGKVICWLCERSQEHRGHHTFLTEEVAREYQVKLQAALEMLRQKQQEAEELEADIREEKASWKTQIQYDKTNVLADFEQLRDILDWEESNELQNLEKEEEDILKSLTNSETEMVQQTQSLRELISDLEHRLQGSVMELLQGVDGVIKRTENVTLKKPETFPKNQRRVFRAPDLKGMLEVFRELTDVRRYWVDVTVAPNNISCAVISEDKRQVSSPKPQIIYGARRYQTFVNFNYCTGILGSQSITSGKHYWEVDVSKKTAWILGVCAGFQPDAMCNIEKNENYQPKYGYWVIGLEEGVKCSAFQDSSFHTPSVPFIVPLSVIICPDRVGVFLDYEACTVSFFNITNHGFLIYKFSHCSFSQPVFPYLNPRKCGVPMTLCSPSS [human TRIM5α, 2-codon deletion at 333]	0.835 ± 0.19
